Results on 172 sequences are retold here after article PMC6212790.

Some of the results follow. At the low end of the ranking, values are background and their order means little.

The experiment addresses T1, GST-Rok (full length) (UniProt O34857).
T1 sequence: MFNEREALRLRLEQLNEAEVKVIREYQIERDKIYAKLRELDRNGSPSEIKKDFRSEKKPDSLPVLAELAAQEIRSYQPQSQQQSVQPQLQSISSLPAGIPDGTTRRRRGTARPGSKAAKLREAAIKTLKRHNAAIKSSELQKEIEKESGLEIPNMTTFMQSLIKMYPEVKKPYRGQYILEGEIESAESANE
Briefly: protein binding microarray.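 Further: rank score from −0.5 (least bound) to 0.5 (best bound).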 Particulars: Rok is a gene silencer of Bacillus subtilis; high values mean tight binding; most listed sequences are background and not binding sites; double strand, one strand shown.
As for CTGACATA, the binding signal was -0.043 E-score.

GATTGAGC returned a binding signal of 0.0396 E-score.

Take CTCGTATA: the binding signal came to 0.0688 E-score.

Take GTGCGACA: the binding signal was 0.0889 E-score.

Regarding ATGGCTGC, the binding signal is -0.244 E-score.

The sequence CATGGACA had a binding signal of 0.0451 E-score.

Take GACACGCA: the binding signal is -0.141 E-score.

GAGCCCGC displayed a binding signal of -0.388 E-score.

For AGGCGATG, the binding signal is -0.112 E-score.

TACCTAAA: the binding signal was determined as 0.37 E-score.

Regarding CTATCCCA, the binding signal is 0.12 E-score.

Sequence CACGTAAA showed a binding signal of 0.131 E-score.

The sequence AAGTAGCG came in with a binding signal of 0.165 E-score.

On to GACTGATC, for which the binding signal is -0.269 E-score.

In turn, AGGAGGCG returned a binding signal of -0.322 E-score.

ATCTTGTG showed a binding signal of 0.135 E-score.

CGGCGCTC displayed a binding signal of -0.278 E-score.

For the sequence GATTAAGA, the binding signal turned out to be 0.0426 E-score.

The sequence GGGATTGA showed a binding signal of -0.112 E-score.

GAATAATA yielded a binding signal of 0.271 E-score.

CTGGGGGA showed a binding signal of -0.481 E-score.

ACAGGATG: the binding signal is -0.149 E-score.

On to ATATACGA, for which the binding signal amounted to 0.23 E-score.

In the case of TCTGTAAA, the binding signal was determined as 0.165 E-score.

ACCAGCTA registered a binding signal of 0.219 E-score.

Sequence CACACAAG registered a binding signal of -0.258 E-score.

In the case of GAATCACC, the binding signal is -0.113 E-score.

With ACGTCCTA, the binding signal was 0.211 E-score.

Take ATGTAAAA: the binding signal came out at 0.295 E-score.

In turn, CGTGATAG returned a binding signal of 0.217 E-score.

Take ACAAATCC: the binding signal is -0.2 E-score.

As to GATGCAGC, the binding signal was -0.132 E-score.

In turn, CCACCGCA gave a binding signal of -0.0639 E-score.

In turn, AAAGTTAG displayed a binding signal of 0.198 E-score.

Sequence GGCGAGTA returned a binding signal of 0.133 E-score.

AGGATAAT came in with a binding signal of 0.189 E-score.

Sequence CGGCTAAC returned a binding signal of -0.106 E-score.

Sequence AAAGTCGT showed a binding signal of 0.0806 E-score.

For the sequence GTTGTTGA, the binding signal turned out to be 0.133 E-score.

For the sequence CGTTTACC, the binding signal was -0.0102 E-score.

Consider GACAACAA, for which the binding signal is -0.0289 E-score.

Consider TAGAACGA, for which the binding signal is 0.121 E-score.

Sequence AGCTTTTC showed a binding signal of 0.0662 E-score.

In turn, TCCCTGAA gave a binding signal of -0.247 E-score.

Sequence CCACTGGA yielded a binding signal of -0.14 E-score.

For the sequence ATGACACG, the binding signal is -0.146 E-score.

In turn, ACCAAGGG showed a binding signal of -0.297 E-score.

Turning to ATGGACAC, the binding signal came to 0.0112 E-score.

GCACCGAA: the binding signal is -0.277 E-score.

For CTTCGCGA, the binding signal is -0.2 E-score.

As for GCATACCA, the binding signal is 0.184 E-score.

CCACAAAC registered a binding signal of 0.0384 E-score.

Regarding ATCCAAAG, the binding signal was -0.0521 E-score.

For GTTTGGCA, the binding signal is -0.116 E-score.

Take CCTGAAGC: the binding signal was -0.161 E-score.

Sequence TACTACTA showed a binding signal of 0.428 E-score.

Turning to GTCGTCGA, the binding signal was -0.0466 E-score.

The sequence CCGCGCGA yielded a binding signal of -0.164 E-score.

For the sequence GCTTGCCA, the binding signal is -0.163 E-score.

GCAGGTCA returned a binding signal of -0.166 E-score.

Sequence GATATTCC gave a binding signal of 0.209 E-score.

AGAGAGAG yielded a binding signal of -0.164 E-score.

Turning to CCGTCCAC, the binding signal is -0.219 E-score.

The sequence GATTACTA showed a binding signal of 0.2 E-score.

GCATCGAA showed a binding signal of 0.00962 E-score.

ACAGGGCC yielded a binding signal of -0.263 E-score.

In turn, AAGATGAA had a binding signal of 0.00509 E-score.

The sequence CTCTTCTC displayed a binding signal of -0.219 E-score.

The sequence TGAGTAAA showed a binding signal of 0.111 E-score.

CTACAGAC yielded a binding signal of 0.12 E-score.

The sequence CTTTGGGC gave a binding signal of -0.295 E-score.

Regarding ATTTCATG, the binding signal came to 0.0972 E-score.

As to TCCGGAAA, the binding signal is -0.00103 E-score.

CGACAGAA: the binding signal is -0.0304 E-score.

AACCCCTA gave a binding signal of -0.191 E-score.

In turn, GAAGCCCC came in with a binding signal of -0.442 E-score.

With ACAGAGTC, the binding signal was -0.161 E-score.

With ACCGGACA, the binding signal was -0.0843 E-score.

On to CGAATATA, for which the binding signal was found to be 0.321 E-score.

In the case of ATAGGCTC, the binding signal was -0.0728 E-score.

Sequence GATGAGGA had a binding signal of -0.233 E-score.

The sequence AACCTCAA showed a binding signal of -0.0878 E-score.

In turn, CCCGATAA returned a binding signal of 0.123 E-score.

ATGACCAG: the binding signal was -0.0938 E-score.

Regarding GTATTCCA, the binding signal was 0.0601 E-score.

AGAACAGC came in with a binding signal of -0.0769 E-score.

Sequence ATGATGGG registered a binding signal of -0.0753 E-score.

As to CCGGGGGA, the binding signal was -0.378 E-score.

In the case of AATAGGGG, the binding signal is -0.179 E-score.

As for ATCCGCTC, the binding signal is -0.117 E-score.

AAGGTGTC came in with a binding signal of -0.258 E-score.

On to CCCGGACA, for which the binding signal was -0.0453 E-score.

Turning to ACCTGGGG, the binding signal was -0.355 E-score.

Consider ACCCTTTA, for which the binding signal is -0.0468 E-score.

For the sequence CTTGTTAC, the binding signal is 0.00671 E-score.

In turn, GCTGCAGC came in with a binding signal of -0.185 E-score.

With GCAAACAC, the binding signal was -0.0266 E-score.

Consider AAGCTCGC, for which the binding signal is -0.0384 E-score.

Sequence ACAACCGG gave a binding signal of -0.0681 E-score.

The sequence CAAATACG displayed a binding signal of 0.143 E-score.

Sequence ATATGCTC had a binding signal of 0.0946 E-score.

In turn, AGGGAGGG came in with a binding signal of -0.159 E-score.

CGATCAAA had a binding signal of 0.143 E-score.

On to CACTCTCG, for which the binding signal is -0.0591 E-score.

With CAAGGAGG, the binding signal was -0.338 E-score.

As for ATAGCTAT, the binding signal turned out to be 0.373 E-score.

ACCGCCCT registered a binding signal of -0.115 E-score.

Consider AGCCTGAT, for which the binding signal is -0.0266 E-score.

In turn, TAAAATGA returned a binding signal of 0.213 E-score.

GTGCGAAA displayed a binding signal of -0.0226 E-score.

In turn, AGCACAGA gave a binding signal of -0.0338 E-score.

Turning to ATCGCAAT, the binding signal came to 0.167 E-score.

With AATGTAGA, the binding signal is 0.389 E-score.

CACGTAGG gave a binding signal of -0.266 E-score.

Turning to AACCAAAT, the binding signal worked out at 0.0861 E-score.

As to AACCGAGG, the binding signal is -0.237 E-score.

AGAACATA gave a binding signal of 0.183 E-score.

The sequence ACTCGATC came in with a binding signal of 0.0884 E-score.

GCGAAGCA: the binding signal was -0.268 E-score.

GACGCATC displayed a binding signal of -0.0842 E-score.

Sequence GTCTCATA had a binding signal of 0.0567 E-score.

For the sequence ATGCCCAC, the binding signal was -0.184 E-score.

Take ACTGGATA: the binding signal turned out to be 0.192 E-score.

In turn, CATGCGGC displayed a binding signal of -0.125 E-score.

Take CGATAATA: the binding signal was 0.23 E-score.

Sequence ACCCGGTC yielded a binding signal of -0.145 E-score.

Sequence GTCCAAAA returned a binding signal of -0.0623 E-score.

As to CCCATTAG, the binding signal is -0.0981 E-score.

In the case of CAAGTGGG, the binding signal was -0.178 E-score.

The sequence CCGCTTCC showed a binding signal of -0.13 E-score.

In the case of AATTTTAA, the binding signal is 0.149 E-score.

Sequence ACGTACAC came in with a binding signal of 0.134 E-score.

For GAGTGCCC, the binding signal is -0.147 E-score.

Turning to CGTGAACC, the binding signal was -0.0228 E-score.

Consider GCGCAAGC, for which the binding signal is -0.204 E-score.

The sequence ATGCAAGG registered a binding signal of -0.0549 E-score.

With ACAACCAG, the binding signal is -0.17 E-score.

For the sequence AGTGGCAC, the binding signal is -0.161 E-score.

TCCATGAA returned a binding signal of -0.159 E-score.

The sequence CATAGGCG gave a binding signal of 0.0239 E-score.

Regarding TAACGTTA, the binding signal amounted to 0.266 E-score.

Regarding AGACACAC, the binding signal was -0.123 E-score.

With GCTGTACC, the binding signal is -0.0639 E-score.

As for TAGCTTAA, the binding signal came out at 0.0214 E-score.

The sequence CTGGCCTA yielded a binding signal of -0.342 E-score.

On to CTTAGAGA, for which the binding signal was -0.111 E-score.

AGCCTTTC returned a binding signal of -0.214 E-score.

ACTTTTGG registered a binding signal of 0.0305 E-score.

Consider ACATTGGA, for which the binding signal turned out to be 0.0689 E-score.

As to AACTTGAA, the binding signal is 0.118 E-score.

The sequence CCCAGGAG showed a binding signal of -0.221 E-score.

On to CAGGCAGC, for which the binding signal was -0.283 E-score.

The sequence CGGTTGTC registered a binding signal of -0.191 E-score.

In turn, ATACATAA displayed a binding signal of 0.316 E-score.

As for GTTATGCA, the binding signal was determined as 0.323 E-score.

In turn, ACCAAAGT yielded a binding signal of 0.17 E-score.

In turn, ACCATATG yielded a binding signal of 0.249 E-score.

As to GAGTCGGA, the binding signal is -0.311 E-score.

The sequence CTCAGTTC gave a binding signal of -0.0174 E-score.

CACTAGAC: the binding signal was -0.0531 E-score.

With AAGTTAAA, the binding signal worked out at 0.0997 E-score.

Turning to CAGGCCCG, the binding signal is -0.364 E-score.

CAATTATC had a binding signal of 0.2 E-score.

In turn, AGTGGGAC registered a binding signal of -0.086 E-score.

As to ATTACTCC, the binding signal came to 0.196 E-score.

Take CGCGTTTA: the binding signal amounted to 0.0282 E-score.

Take ACTATATG: the binding signal was determined as 0.267 E-score.

In the case of CAGCGCTC, the binding signal is -0.219 E-score.

ATGCCAGC: the binding signal is -0.0477 E-score.

For the sequence AACGGTGT, the binding signal is 0.00756 E-score.

In the case of GTATTCAC, the binding signal was found to be 0.126 E-score.

CATGATAA: the binding signal was 0.161 E-score.
